The text below walks through data of paper PMC9911399, “Two distinct binding modes provide the RNA-binding protein RbFox with extraordinary sequence specificity”.

B1: UACAUUC (DNA:RNA)
RNA: GGGAGACCGGAAUUCAGAUUGUCCUACAUUCUUAAAUCCCGUCGUAGCCACCA
DNA 1: CAATCTGAATTCCGGTCTCCC
DNA 2: TGGTGGCTACGACGGGATT
B2: UCCGUCG (DNA:RNA)
RNA: B1 RNA with A26C, A28G, U30C, C31G
DNA 1: CAATCTGAATTCCGGTCTCCC
DNA 2: TGGTGGCTACGACGGGATT
B3: ACUCUAA (DNA:RNA)
RNA: B1 RNA with U25A, A26C, C27U, A28C, U30A, C31A
DNA 1: CAATCTGAATTCCGGTCTCCC
DNA 2: TGGTGGCTACGACGGGATT
B4: AGAUAGA (DNA:RNA)
RNA: GGGAGACCGGAAUUCAGAUUGUCCAGAUAGAUUAAAUCCCGUCGUAGCCACCA
DNA 1: CAATCTGAATTCCGGTCTCCC
DNA 2: TGGTGGCTACGACGGGATT
B5: GUAACUC (DNA:RNA)
RNA: B1 RNA with U25G, A26U, C27A, U29C
DNA 1: CAATCTGAATTCCGGTCTCCC
DNA 2: TGGTGGCTACGACGGGATT
B6: UAUCACA (DNA:RNA)
RNA: B4 RNA with A25U, G26A, A27U, U28C, G30C
DNA 1: CAATCTGAATTCCGGTCTCCC
DNA 2: TGGTGGCTACGACGGGATT
B7: UGUACGG (DNA:RNA)
RNA: B4 RNA with A25U, A27U, U28A, A29C, A31G
DNA 1: CAATCTGAATTCCGGTCTCCC
DNA 2: TGGTGGCTACGACGGGATT
B8: UCGUAGG (DNA:RNA)
RNA: B4 RNA with A25U, G26C, A27G, A31G
DNA 1: CAATCTGAATTCCGGTCTCCC
DNA 2: TGGTGGCTACGACGGGATT
B9: AACGGGU (DNA:RNA)
RNA: B4 RNA with G26A, A27C, U28G, A29G, A31U
DNA 1: CAATCTGAATTCCGGTCTCCC
DNA 2: TGGTGGCTACGACGGGATT
B10: AGACAAU (DNA:RNA)
RNA: B4 RNA with U28C, G30A, A31U
DNA 1: CAATCTGAATTCCGGTCTCCC
DNA 2: TGGTGGCTACGACGGGATT
B11: ACACGUA (DNA:RNA)
RNA: B4 RNA with G26C, U28C, A29G, G30U
DNA 1: CAATCTGAATTCCGGTCTCCC
DNA 2: TGGTGGCTACGACGGGATT
B12: UUCGCCA (DNA:RNA)
RNA: B1 RNA with A26U, A28G, U29C, U30C, C31A
DNA 1: CAATCTGAATTCCGGTCTCCC
DNA 2: TGGTGGCTACGACGGGATT
B13: GGCCCCG (DNA:RNA)
RNA: B4 RNA with A25G, A27C, U28C, A29C, G30C, A31G
DNA 1: CAATCTGAATTCCGGTCTCCC
DNA 2: TGGTGGCTACGACGGGATT
B14: AGUUGCA (DNA:RNA)
RNA: B4 RNA with A27U, A29G, G30C
DNA 1: CAATCTGAATTCCGGTCTCCC
DNA 2: TGGTGGCTACGACGGGATT
B15: CGUGACC (DNA:RNA)
RNA: B4 RNA with A25C, A27U, U28G, G30C, A31C
DNA 1: CAATCTGAATTCCGGTCTCCC
DNA 2: TGGTGGCTACGACGGGATT
B16: CCCGUAA (DNA:RNA)
RNA: B1 RNA with U25C, A26C, A28G, U30A, C31A
DNA 1: CAATCTGAATTCCGGTCTCCC
DNA 2: TGGTGGCTACGACGGGATT
B17: UCCAUAG (DNA:RNA)
RNA: B1 RNA with A26C, U30A, C31G
DNA 1: CAATCTGAATTCCGGTCTCCC
DNA 2: TGGTGGCTACGACGGGATT
B18: AACUGGU (DNA:RNA)
RNA: B4 RNA with G26A, A27C, A29G, A31U
DNA 1: CAATCTGAATTCCGGTCTCCC
DNA 2: TGGTGGCTACGACGGGATT
B19: AUGAUGA (DNA:RNA)
RNA: B4 RNA with G26U, A27G, U28A, A29U
DNA 1: CAATCTGAATTCCGGTCTCCC
DNA 2: TGGTGGCTACGACGGGATT
B20: CCUUAAU (DNA:RNA)
RNA: B4 RNA with A25C, G26C, A27U, G30A, A31U
DNA 1: CAATCTGAATTCCGGTCTCCC
DNA 2: TGGTGGCTACGACGGGATT

Substitutions are numbered along the chain they refer to; changes in the protein carry UniProt numbers. Some of the results follow.

The test addresses T1, RBFOX1 RRM RbFoxmut (Fox-RRM*) (Homo sapiens, UniProt Q9NWB1 109-208, R118D;E147R;N151S;E152T).
T1 sequence: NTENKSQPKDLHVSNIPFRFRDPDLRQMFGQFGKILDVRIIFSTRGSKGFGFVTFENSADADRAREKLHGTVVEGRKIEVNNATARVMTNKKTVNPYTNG
Description: EMSA; HiTS-Eq, 1 nM pool, 10 min; buffer printed only for the single-RNA assays: 10 mM Tris pH 7.5, 150 mM NaCl, 3.4 mM EDTA, 0.001% NP-40, 30 C. As to conditions: tags: His6 N-terminal (pET28a); label: 5' 32P. Put shortly:
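A pool of RNA with 7 randomized nucleotides, 5′-radiolabelled and with DNA-annealed flanks, was equilibrated at 1 nM for 10 min in 50 µL with purified RbFox RRM, wild type or mutant, across increasing protein concentrations. Free RNA was separated by 8% native PAGE, excised, reverse-transcribed, barcoded by PCR and sequenced. Relative association constants were obtained from read-count changes of each RNA species versus the control reaction and normalised to the cognate motif.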
On the technique in general: Mobility shift assays separate free from complexed probe on a gel.
For the molecule B1, the binding signal is 0.0735 KA relative to UGCAUGU.

With B2, the binding signal was 0.099 KA relative to UGCAUGU. Next, B3: 0.101 KA relative to UGCAUGU. Next, B4: 0.0924 KA relative to UGCAUGU; B5: 0.057 KA relative to UGCAUGU; B6: 0.084 KA relative to UGCAUGU.

For B7, the binding signal was 0.117 KA relative to UGCAUGU.

For the molecule B8, the binding signal is 0.116 KA relative to UGCAUGU. Next, B9: 0.117 KA relative to UGCAUGU; B10: 0.0449 KA relative to UGCAUGU; B11: 0.14 KA relative to UGCAUGU.

On to B12, for which the binding signal was 0.1 KA relative to UGCAUGU. With B13, the binding signal was 0.127 KA relative to UGCAUGU. Consider B14, for which the binding signal is 0.174 KA relative to UGCAUGU. Regarding B15, the binding signal was 0.101 KA relative to UGCAUGU. The result for B16 reads 0.0904 KA relative to UGCAUGU; that for B17, 0.12 KA relative to UGCAUGU; that for B18, 0.113 KA relative to UGCAUGU.

Take B19: the binding signal is 0.105 KA relative to UGCAUGU. The result for B20 reads 0.0901 KA relative to UGCAUGU.
